# Test results taken from the supplement of paper PMC12217912.
# The other results are listed elsewhere or left out. Sequences were assembled here from the parent chain. Inactive controls read about 0.05.
# B1: TEV protease; numbered along this chain (parent)
# chain: MGESLFKGPRDYNPISSSICHLTNESDGHTTSLYGIGFGPFIITNKHLFRRNNGTLVVQSLHGVFKVKDTTTLQQHLVDGRDMIIIRMPKDFPPFPQKLKFREPQREERICLVTTNFQTKSMSSMVSDTSCTFPSGDGIFWKHWIQTKDGQCGSPLVSTRDGFIVGIHSASNFTNTNNYFTSVPKNFMELLTNQEAQQWVSGWRLNADSVLWGGHKVFMVKPEEPFQPVKEATQL
# Variants of: B1
# Experiment: raw area under fraction-flipped curve 0-4 h after induction (AUC4h, not background-subtracted), DNA-recorder readout of cleavage of the substrate (dimensionless); higher = more cleavage of the substrate by the protease variant
# Conditions: temperature: 34 °C; time window: 0-4 h after rhamnose induction
# 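Note: Bxb1 expression induced with 0.2% (w/v) L-rhamnose at OD600 near 0.5, cultures sampled hourly, flipped fraction per protease–substrate barcode pair counted by paired-end Illumina sequencing.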
Variant,area with substrate EDLYFQS,area with substrate EELYFQS,area with substrate EILYFQS,area with substrate EKLYFQS,area with substrate ELLYFQS,area with substrate EMLYFQS,area with substrate EPLYFQS,area with substrate ERLYFQS,area with substrate ESLYFQS,area with substrate EVLYFQS
L33C,0.102,0.121,0.116,0.104,0.106,0.115,0.11,0.124,0.135,0.119
C111R,–,0.159,0.101,0.0609,–,–,–,0.127,0.114,–
Q227F,0.102,0.0761,0.103,–,0.0602,–,–,–,0.105,0.0966
D91L,–,0.1,–,0.132,–,–,–,–,0.0735,–
F49S,0.0849,0.0647,0.0692,0.0526,–,–,–,0.0666,0.0657,0.0579
R106L,0.179,0.143,–,–,–,–,0.155,–,–,–
Y34E,0.0719,0.0793,–,0.0695,–,0.0717,0.0475,–,0.066,–
G153W,–,0.0409,–,–,–,–,–,0.0528,0.0529,0.0802
F180A,0.0915,0.0977,0.0902,–,0.0837,–,0.103,0.0768,0.081,0.0824
F180D,–,0.0648,0.0397,0.052,0.054,0.0613,0.0545,–,0.0461,–
H62C,–,0.131,0.1,0.126,0.0804,0.132,–,0.0806,0.0846,0.0941
F218T,–,0.183,0.0828,–,–,–,–,–,0.0929,0.098
F218A,0.09,0.112,–,–,0.0917,0.0967,–,0.0836,0.0825,0.0822
G28V,0.0915,0.142,0.0727,0.0705,0.0748,0.0827,0.0809,0.0693,0.0743,0.0777
F101D,0.0428,–,–,–,–,–,–,–,0.0579,0.032
F101Y,0.0924,0.0974,–,–,–,0.0864,–,0.048,0.0797,0.0941
N178V,–,0.0879,0.0643,0.0882,0.0669,0.0986,–,–,–,0.073
M188I,–,0.163,0.075,0.134,–,0.146,–,–,0.125,0.0853
L73F,–,0.0725,0.0619,0.0763,–,0.0703,0.0798,–,–,–

Variant,area with substrate EDLYFQS,area with substrate EELYFQS,area with substrate EILYFQS,area with substrate EKLYFQS,area with substrate ELLYFQS,area with substrate EMLYFQS,area with substrate EPLYFQS,area with substrate ERLYFQS,area with substrate ESLYFQS,area with substrate EVLYFQS
T30V,0.194,0.11,–,–,–,–,–,0.107,0.148,–
L61V,–,0.123,0.0846,–,–,–,–,0.078,0.111,–
L61Q,–,0.122,0.0985,0.103,0.085,–,0.11,–,0.0991,–
W203K,0.0949,0.0507,0.0505,0.0913,0.0673,0.05,–,0.0585,0.0675,0.0674
L205D,0.108,0.0951,0.0646,0.0742,–,–,0.0895,0.0756,0.0974,0.0939
T174H,0.0949,0.101,0.0748,–,–,0.0998,0.0822,–,0.0929,0.0982
S209L,–,0.0901,–,0.0574,–,–,–,0.0901,0.112,0.0914
Y179I,0.0535,0.0448,0.0485,–,0.054,–,–,–,0.0546,–
L235G,–,0.126,0.0811,0.107,0.0909,0.126,–,–,0.102,–
L235N,–,0.128,0.105,0.0984,–,–,0.0906,0.12,–,–
L235I,0.108,–,0.0778,0.113,–,–,0.134,–,–,0.0748
M88K,–,0.0473,–,–,–,0.0735,0.0803,0.0775,0.0665,0.0711
E231L,0.0812,–,0.0826,–,–,0.127,–,0.0901,0.0884,0.0844
K90Y,–,0.147,–,–,0.113,–,0.078,0.122,0.0986,0.0968
E195G,0.117,0.121,–,–,–,–,–,–,–,0.0941
T70Y,0.0993,–,0.054,–,0.0642,0.0695,–,0.0761,0.0669,0.0682
Q197E,0.0882,–,0.075,0.118,0.0907,0.0861,0.089,–,0.0918,0.098
Q197N,–,0.123,–,–,0.0875,0.138,–,–,0.0561,–

# Same assay, conditions: temperature: 34 °C; time window: 0-4 h after rhamnose induction
Variant,area with substrate EYLYFQS,area with substrate EGLYFQS,area with substrate ETLYFQS,area with substrate EHLYFQS,area with substrate EQLYFQS,area with substrate EWLYFQS,area with substrate EFLYFQS
L33C,0.0747,–,–,–,–,–,–
C111R,–,0.0858,0.101,–,–,–,–
D91L,–,0.122,–,0.0831,0.07,0.0861,–
F49S,–,0.0644,0.0522,0.0668,0.0648,0.0536,0.0254
R106L,–,–,–,–,0.128,–,–
Y34E,–,0.0694,–,–,0.0882,–,–
G153W,–,–,–,–,–,–,0.0547
F180A,–,0.0983,–,0.0834,–,0.0698,–
F180D,0.0433,0.0477,–,0.0374,–,0.0494,0.0406
H62C,–,–,–,–,0.0898,–,–
F218T,–,0.0254,0.109,–,0.0806,–,–
F218A,–,0.08,–,–,0.101,–,–
G28V,–,–,0.0829,0.0668,0.0887,0.0702,0.0634
F101D,–,–,–,–,–,–,0.035
F101Y,0.086,0.0733,–,0.0804,–,–,–
N178V,–,0.0841,–,0.0655,–,0.0669,–
M188I,0.206,0.108,0.13,–,0.116,0.0993,0.115
L73F,–,–,0.0741,–,0.0761,0.0566,–

Variant,area with substrate EYLYFQS,area with substrate EGLYFQS,area with substrate ETLYFQS,area with substrate EHLYFQS,area with substrate EQLYFQS,area with substrate EWLYFQS,area with substrate EFLYFQS
T30V,–,0.0913,0.0743,–,–,–,–
L61V,–,0.126,–,0.115,0.124,–,–
L61Q,0.13,–,–,0.101,0.116,0.0867,–
W203K,–,–,0.0966,0.055,0.0631,0.0493,–
L205D,–,–,–,–,0.0753,0.0631,–
T174H,0.0827,0.0729,–,0.117,0.099,0.0687,–
S209L,–,–,–,–,0.117,–,0.108
Y179I,–,0.0632,–,–,–,–,–
L235G,–,0.0706,–,0.114,0.0932,–,0.0966
L235N,–,0.0824,–,–,–,0.0844,–
L235I,–,0.0792,–,0.186,–,–,–
M88K,–,–,–,–,0.089,0.0692,–
E231L,0.0723,0.0926,–,–,0.105,–,–
K90Y,–,–,0.029,0.132,–,0.0663,–
E195G,–,–,–,0.114,0.0999,0.0888,–
T70Y,–,0.0711,0.0649,–,0.0904,–,–
Q197E,0.075,0.0744,0.0748,0.0762,–,0.0687,–
Q197N,0.0715,0.0572,–,–,0.0673,0.11,–
